Among all 45,000 compounds or so, about 200 (0.44%) were called active. Inconclusive results (about 7%) are left out. The call rests on the fitted dose curve; in most records, active means well fitted activation curve with a large enough effect; inconclusive means small, poorly fitted or top-dose-only effect; inactive means no such curve, though single readings can be large or run the other way. The list shows a part of the results.
Assay: qHTS of TDP-43 Inhibitors: NCGC Sytravon Library Screen; further: 0% is about no effect; nearly all actives have a fitted effect of over 55% in size
Conditions: yeast TDP-43 toxicity rescue, BacTiter-Glo growth, 24 h; series mostly up to 46.1 µM; growth rescue (activation): at the top concentration
How it was run: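 TDP-43-expressing yeast, pregrown in raffinose, seeded at OD600 0.02 in galactose medium with compound for 24 hr at 30 deg C. Growth read by BacTiter-Glo luminescence, so rescue of toxicity appears as activation.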

SMILES | growth rescue (activation)
C[C@@H](C(=O)NCCCCCC(=O)O)n1nnc2ccccc2c1=O | inactive: 27.2%
CC(=O)N1CCN(C(=S)Nc2ccc(Oc3ccccc3)cc2)CC1 | inactive: 21.5%
COCCCn1c(=O)c2ccccc2n(CC(=O)NC2CCCC2)c1=O | inactive: 19.9%
CC(C)c1nnc(NC(=O)Cc2ccc(Br)cc2)s1 | inactive: 12.2%
CC(C)[C@H](NC(=O)c1ccc(Cl)c([N+](=O)[O-])c1)C(=O)NCc1ccc(Cl)cc1Cl | inactive: 23%
CCC(NC(=S)Nc1ccccc1)C(=O)O (centres undefined) | inactive: 5.04%
Cc1ccsc1CN(C(=O)c1oc2ccccc2c1C)C1CCS(=O)(=O)C1 (centres undefined) | inactive: 12.1%
CC(C)C(OC(=O)c1ccco1)C(=O)NCc1cccs1 (centres undefined) | inactive: 26.6%
Cc1ccccc1C(=O)NNC(=O)CCC(=O)Nc1cccc(Cl)c1C | inactive: -15.3%
C(=N\Nc1nc2ccccc2[nH]1)/c1cccs1 | inactive: 21%
CC1=CC(C)(C)Nc2ccc(OC(=O)CN3C(=O)c4ccccc4C3=O)cc21 | inactive: 36.2%
COc1ccc(/C=N/NC2=NS(=O)(=O)c3ccccc32)cc1OC | inactive: 5.41%
Cc1ccc2c(c1)N(CC(=O)N1CCN(C3CCCCC3)CC1)C(=O)CO2 | inactive: 6.31%
CSc1ccc(-c2nc(CN3CCCCC3c3cccnc3)c(C)o2)cc1 (centres undefined) | inactive: 11.2%
COCc1cnc(C)nc1N | inactive: 14.8%
Cc1nc(SCc2ccc(C(=O)O)cc2)c2c(C)c(C)sc2n1 | inactive: 7.11%
O=C(COC(=O)c1cncc(Br)c1)NCC12CC3CC(CC(C3)C1)C2 | inactive: -9.56%
Cc1sc2ncnc(SCC(=O)NC3CCCC3)c2c1C | inactive: 15%
CC(C)(C)c1ccc(CN2N=C(/C=C/c3ccccc3)CCC2=O)cc1 | inactive: 1.35%
C=CCn1c(SCC(=O)Nc2ccccc2C)nnc1-c1ccncc1 | inactive: 9.16%
COc1ccc(OC)c(NC(=O)Nc2cc(C(=O)O)ccc2C)c1 | inactive: 12%
O=C(N/N=C/c1c[nH]c2ccccc12)c1cc(-c2cccc3ccccc23)n[nH]1 | inactive: -5.36%
N#CCCn1cc(C(=O)Nc2ccc([N+](=O)[O-])cc2)c(-c2cc3ccccc3o2)n1 | inactive: 4.91%

SMILES | growth rescue (activation)
COCCN(C(=S)Nc1cccc(C)c1C)C(C)c1ccco1 (centres undefined) | inactive: 12%
Cc1cc(N)n(-c2ccc(Oc3ccccc3)c(S(=O)(=O)O)c2)n1 | inactive: -1.33%
CCOC(=O)c1[nH]c(C)c(C(=O)N2CCN(c3ccc(OC)cc3)CC2)c1C | inactive: 2.67%
COc1cccc(C(=O)C2CCCN(C/C=C/c3ccccc3OC)C2)c1 (centres undefined) | inactive: 7.16%
Cc1ccc(-n2c(SCC(=O)N3CCC(C(=O)O)CC3)nc3ccccc3c2=O)cc1C | inactive: 29.9%
Cc1cnc(C(=O)OCC(=O)Nc2ccccc2[N+](=O)[O-])cn1 | inactive: 13.1%
CN1CCN(c2cc(C(F)(F)F)nc(-c3ccccn3)n2)CC1 | inactive: 31.1%
CCN(CC)S(=O)(=O)c1cccc(C(=O)N/N=C/c2ccc(OC)c(O)c2)c1 | inactive: -1.02%
Cc1cccc(NC(=O)COC(=O)C2C3CC4OC(=O)C2C4C3)c1C (centres undefined) | inactive: 5.46%
CCCOc1ccc(C2C(C(=O)c3ccco3)=C(O)C(=O)N2CCCn2ccnc2)cc1 (centres undefined) | inactive: 11.3%
CCc1ccc(CN2C(=O)c3ccccc3C2C(=O)NC(C)CC)cc1 (centres undefined) | inactive: -0.198%
CCc1ccc(NC(=O)/C(C#N)=C/c2cc3ccc(C)cc3nc2N2CCOCC2)cc1 | inactive: 3.51%
CNC(=O)c1ccc(NC(=O)c2nsc3ccccc23)cc1 | inactive: 23.9%
CC(C)CC(=O)Nc1ccc2c3c(cccc13)CC2 | inactive: 28.9%
CC1(NC(=S)NCCCCCCNC(=S)NC2(C)CCS(=O)(=O)C2)CCS(=O)(=O)C1 (centres undefined) | inactive: 2.21%
CC1CCCCC1NC(=O)COC(=O)COc1ccccc1F (centres undefined) | inactive: 6.63%
Cc1cc([N+](=O)[O-])nn1Cn1nc([N+](=O)[O-])cc1C | inactive: 5.05%
O=C(N/N=C/c1ccco1)c1cccc(NC(=O)c2cccc(Cl)c2)c1 | inactive: 1.52%
O=C(CN1C(=O)c2ccccc2S1(=O)=O)NCCSCc1ccccc1Cl | inactive: 2.75%
O=C(O)c1nn(CCOc2c(Cl)cccc2Cl)c(=O)c2ccccc12 | inactive: 8.84%
c1cnc2c(-c3cccc4nccn34)cccc2c1 | inactive: 5.22%
CSc1ccc(Cl)c(C(=O)Nc2cc(S(=O)(=O)N3CCOCC3)ccc2N2CCOCC2)c1 | inactive: -0.427%
Cc1ccc(OCc2nnc(N)s2)cc1 | inactive: 0.478%

SMILES | growth rescue (activation)
CC(C)CCN1CCN(Cc2ccc3nsnc3c2)CC1CCO (centres undefined) | inactive: -4.17%
CCCS(=O)(=O)N1CCCC(C(=O)NCC(OC)OC)C1 (centres undefined) | inactive: 8.77%
COCCC(=O)N1CCCC(CCC(=O)NCc2ccc(F)c(F)c2)C1 (centres undefined) | inactive: -3.46%
Cc1cc(NC(=O)c2ccc3c(c2)C(=O)N(C2CCCCC2)C3=O)no1 | inactive: 7.32%
O=[N+]([O-])c1cc(/C=N/n2c(-c3ccncc3)n[nH]c2=S)ccc1Cl | inactive: 1.91%
COCCN1Cc2cccc(C(=O)Nc3ccc(S(=O)(=O)N4CCCCC4)cc3)c2C1=O | inactive: 6.8%
O=C(NCc1nc(-c2ccc(Cl)cc2)no1)c1ccco1 | inactive: 13.6%
O=C(Cc1cccs1)N/N=C/c1ccccn1 | inactive: -2.61%
CCN(c1ccccc1)S(=O)(=O)c1cc(C(=O)Nc2ccc(Br)cc2)ccc1F | inactive: -38%
Cc1ccc(C2(C)NC(=O)N(CC(=O)N(Cc3ccccc3)C(C)(C)C)C2=O)cc1 (centres undefined) | inactive: 8.26%
[O-]/C(=C(\C(=S)Nc1ccc(SC(F)F)cc1)[n+]1ccccc1)c1ccc(Cl)cc1Cl | inactive: 0.877%
CC1(C)C(=O)C2(CCCCC2)C(=O)OC1c1cccc([N+](=O)[O-])c1 (centres undefined) | inactive: -4.33%
CC(=O)c1c(C)oc2ccc(NS(=O)(=O)c3ccc(C(=O)O)cc3)cc12 | inactive: 10.8%
CCOC(=O)C1(C)CCN1C(=O)c1ccc(C)cc1 (centres undefined) | inactive: 9.24%
Cc1cccc(-c2nnc(SCC(=O)O)n2Cc2ccccc2)c1 | inactive: 13.5%
COc1ccccc1COC(=O)c1cccc(S(=O)(=O)N2CCCC2)c1 | inactive: 16.8%
Cc1cc(C(F)F)n2nc(C(=O)Nc3cccc(C(F)(F)F)c3)nc2n1 | inactive: 19.1%
Cc1cc(NC(=O)CSc2sc3c(O)cc(=O)[nH]c3c2C#N)ccc1Br | inactive: 13.2%
Cc1ccc(S(=O)(=O)N2CCOCC2)cc1NC(=O)COC(=O)c1ccc(Cl)s1 | inactive: 2.68%
CC(C)Oc1ccc(CCC(=O)N/N=C/c2ccc3c(c2)OCO3)cc1 | inactive: 6.38%
COc1ccc(N(CC(=O)Nc2cccc(SC)c2)S(C)(=O)=O)cc1 | inactive: 2%
COc1ccc([N+](=O)[O-])cc1NC(=O)C1C2C=CC(C2)C1C(=O)O (centres undefined) | inactive: -6.15%
O=C(Cc1ccc(Br)cc1)Nc1ccccc1Cl | inactive: 20.9%

Source: PubChem BioAssay AID1347073 (National Center for Advancing Translational Sciences (NCATS), 2019)
